Measured values from PMC10907753 (Communications Biology, 2024).

Target: Xcc NAMPT quadruple mutant (Xanthomonas campestris pv. campestris, UniProt A0A0H2X5R2, H175F/I224F/I332F/V291F)
Conditions: ITC

NC(=O)c1cccnc1 [NAM, nicotinamide]
affinity between the quadruple mutant and NAM: undetectable
